{
  "source": "PubChem BioAssay AID1347165",
  "about": "(National Center for Advancing Translational Sciences (NCATS), 2019)",
  "note": "The whole screen tested about 220,000 compounds, of which about 5,700 (2.6%) were called active. Inconclusive results, whose numbers are uncertain, are shown with a selection of clear calls. Calls follow the shape of the dose curve; as a rule, active = well fitted inhibition curve with a large enough effect; inconclusive = small, poorly fitted or top-dose-only effect; inactive = no such curve, though single readings can be large or run the other way. Potencies beside an inconclusive call are fits to weak or partial responses and may not hold up. Potency is read from the fitted curve at half-maximal effect; tags tell the direction and shape of the fitted curve.",
  "data": [
    {"biological_target": "Lysine-specific demethylase 5B (Homo sapiens) (UniProt Q9UGL1)", "sequence (Q9UGL1 whole entry, looked up)": "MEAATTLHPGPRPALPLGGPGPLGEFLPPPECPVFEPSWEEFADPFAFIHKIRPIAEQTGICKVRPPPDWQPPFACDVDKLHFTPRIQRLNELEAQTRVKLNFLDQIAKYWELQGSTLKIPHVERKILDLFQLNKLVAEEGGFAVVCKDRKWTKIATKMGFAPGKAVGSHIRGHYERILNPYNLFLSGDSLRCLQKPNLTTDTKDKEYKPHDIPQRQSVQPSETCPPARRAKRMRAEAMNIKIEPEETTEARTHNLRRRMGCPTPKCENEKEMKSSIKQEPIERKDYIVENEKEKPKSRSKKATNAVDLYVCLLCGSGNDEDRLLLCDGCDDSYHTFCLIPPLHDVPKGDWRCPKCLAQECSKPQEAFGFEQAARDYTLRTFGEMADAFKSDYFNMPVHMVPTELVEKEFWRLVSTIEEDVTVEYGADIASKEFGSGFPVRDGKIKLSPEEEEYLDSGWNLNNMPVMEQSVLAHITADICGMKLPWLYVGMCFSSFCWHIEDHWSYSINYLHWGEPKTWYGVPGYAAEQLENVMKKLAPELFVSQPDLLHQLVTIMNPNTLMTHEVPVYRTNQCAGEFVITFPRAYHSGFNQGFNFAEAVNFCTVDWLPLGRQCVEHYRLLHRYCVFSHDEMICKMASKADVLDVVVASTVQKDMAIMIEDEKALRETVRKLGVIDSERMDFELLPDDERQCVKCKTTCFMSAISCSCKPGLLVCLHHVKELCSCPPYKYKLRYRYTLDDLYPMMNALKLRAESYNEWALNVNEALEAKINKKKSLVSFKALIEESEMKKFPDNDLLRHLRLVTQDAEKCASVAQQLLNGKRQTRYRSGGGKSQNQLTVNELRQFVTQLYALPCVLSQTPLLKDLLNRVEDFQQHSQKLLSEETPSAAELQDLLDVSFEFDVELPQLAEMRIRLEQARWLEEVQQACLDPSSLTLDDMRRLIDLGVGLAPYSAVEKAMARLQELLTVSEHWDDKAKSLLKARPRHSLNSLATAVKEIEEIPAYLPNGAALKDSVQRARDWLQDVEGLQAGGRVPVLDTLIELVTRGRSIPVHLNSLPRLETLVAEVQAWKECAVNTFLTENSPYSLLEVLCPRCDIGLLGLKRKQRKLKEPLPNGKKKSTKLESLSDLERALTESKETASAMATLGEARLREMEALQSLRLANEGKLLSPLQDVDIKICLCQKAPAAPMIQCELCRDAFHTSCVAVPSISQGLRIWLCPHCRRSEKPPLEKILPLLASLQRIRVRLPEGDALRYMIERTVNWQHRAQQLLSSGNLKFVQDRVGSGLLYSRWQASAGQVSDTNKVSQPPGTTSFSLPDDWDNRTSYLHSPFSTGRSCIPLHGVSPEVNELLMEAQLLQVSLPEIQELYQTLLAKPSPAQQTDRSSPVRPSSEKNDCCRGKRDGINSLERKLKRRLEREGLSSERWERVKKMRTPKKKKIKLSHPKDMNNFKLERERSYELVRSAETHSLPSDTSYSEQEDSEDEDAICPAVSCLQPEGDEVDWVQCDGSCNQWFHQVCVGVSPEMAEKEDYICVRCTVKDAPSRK", "assay": "Primary screen for KDM5B Histone Demethylases FDH-coupled qHTS; also: nearly all actives have a fitted effect of over 70% in size; as to activity change, negative = inhibition: 0% is about no effect", "details": "FDH-coupled NADH fluorescence (FDH is formaldehyde dehydrogenase); activity change, negative = inhibition: at 57.7 µM (top of the series) unless noted", "procedure,_shortened": "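Compound dilutions met 200 nM (final) KDM5BΔAP for 10 min at room temperature before substrate addition. The substrate mix held 12.5 µM H3K4me3 with cofactors 25 µM α-ketoglutarate and 50 µM Fe²⁺. NADH signal gain over 30 min defined activity.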", "values": [
      {"smiles": "Brc1ccccc1/C=N/Nc1nncc2ccccc12", "Potency": "inconclusive: 28.2 µM [inhibitor, single point]"},
      {"smiles": "COc1ccc2c(=O)n(CC(=O)N(C)Cc3cc(C)no3)ccc2c1OC", "Potency": "inconclusive: 39.8 µM [inhibitor, single point]"},
      {"smiles": "CC(=O)c1c(O)c2cccc3c2n(c1=O)CCC3", "Potency": "inconclusive: 25.1 µM [inhibitor, single point]"},
      {"smiles": "CCNc1ncnc2sc3c(c12)CCN(S(=O)(=O)c1ccccc1)C3", "Potency": "inconclusive: 15.8 µM [inhibitor, partial curve, poor fit]"},
      {"smiles": "COc1ccc(F)cc1S(=O)(=O)N[C@@H]1CN(C)C[C@H]1CN(C)C", "Potency": "inconclusive: 11.2 µM [inhibitor, partial curve]"},
      {"smiles": "Cc1cccc(NC(=O)CC2Nc3ccccc3NC2=O)c1C", "note": "(configuration not stated)", "Potency": "inconclusive: 22.4 µM [inhibitor, single point]"},
      {"smiles": "O=C(Nc1cccc2ccccc12)O[C@@H]1CO[C@H]2[C@@H]1OC[C@@H]2n1nnnc1-c1ccc(-c2ccccc2)cc1", "Potency": "inconclusive: 28.2 µM [inhibitor, single point]"},
      {"smiles": "Cc1cc(NC(=O)COC(=O)C2(c3cccc(F)c3)CCCC2)no1", "activity change, negative = inhibition": "inactive: 20.7%"},
      {"smiles": "Cc1nc(CNC(=O)c2cc(Cn3ccnc3C(C)C)[nH]n2)sc1C", "Potency": "inconclusive: 28.2 µM [inhibitor, single point]"},
      {"smiles": "Cc1[nH]c(SCC(=O)Nc2ccc(S(=O)(=O)N3CCCC3)cc2)nc1Cc1ccccc1", "activity change, negative = inhibition": "inactive: 9.29%"},
      {"smiles": "C=CCCC(CN1CCSCC1)Oc1nc(OC)cc(OC)n1", "note": "(configuration not stated)", "Potency": "inconclusive: 7.08 µM [inhibitor, single point]"},
      {"smiles": "O=C(Nc1ccccc1Cl)c1ccc2c(Cl)c3c(nc2c1)CCCC3", "activity change, negative = inhibition": "inactive: 18.9%"},
      {"smiles": "COCCCNC(=O)Cc1c(C)c2ccc(OC)c(OC)c2oc1=O", "Potency": "inconclusive: 25.1 µM [inhibitor, partial curve, poor fit]"},
      {"smiles": "COc1ccc(C(=O)N2CCC3(CC2)CCC(O)(CN(C)C)CC3)cc1", "Potency": "inconclusive: 35.5 µM [inhibitor, single point]"},
      {"smiles": "OCC1CN(Cc2ccccc2)CC12CCN(Cc1ccccn1)CC2", "note": "(configuration not stated)", "Potency": "inconclusive: 17.8 µM [inhibitor, partial curve]"},
      {"smiles": "COc1ccc(Br)cc1CNC12CC3CC(CC(C3)C1)C2", "activity change, negative = inhibition": "inactive: -50%"},
      {"smiles": "CC(C)(C)c1cc(NC(=O)Nc2ccc(Cl)c(Cl)c2)no1", "activity change, negative = inhibition": "inactive: -10.9%"},
      {"smiles": "COc1cccc(CN2CC[C@H](c3nc4ccccc4s3)C2)c1", "Potency": "inconclusive: 28.2 µM [inhibitor, partial curve]"},
      {"smiles": "O=C(CNc1cc(S(=O)(=O)N2CCCCC2)ccc1N1CCCCC1)Nc1ccc(F)cc1", "activity change, negative = inhibition": "inactive: 19.4%"},
      {"smiles": "O=C(NCCc1csc(-c2cccnc2)n1)C1NCCc2[nH]cnc21", "note": "(configuration not stated)", "Potency": "active: 12.6 µM"},
      {"smiles": "O=C(NCc1ccccc1Cl)C1CCCN(c2cnc3ccccc3n2)C1", "note": "(configuration not stated)", "activity change, negative = inhibition": "inactive: 7.87%"},
      {"smiles": "O=C(c1ccccc1)N1CC=C(c2c[nH]c3ccccc23)CC1", "Potency": "inconclusive: 10 µM [inhibitor, partial curve, poor fit]"},
      {"smiles": "Cc1cc(C)c(/C=C/C(=O)Nc2sccc2C#N)cc1C", "Potency": "inconclusive: 2 µM [inhibitor, full curve, poor fit]"},
      {"smiles": "Cc1cc(CNC(=O)c2cc(C(C)C)n3ncnc3n2)c2[nH]c(C)c(C)c2c1", "Potency": "inconclusive: 28.2 µM [inhibitor, partial curve, poor fit]"},
      {"smiles": "CCCNC(=O)N1CCCC2(CCC(=O)N(CCc3cnc[nH]3)C2)C1", "note": "(configuration not stated)", "activity change, negative = inhibition": "inactive: -1.18%"},
      {"smiles": "O=C(NCCc1cccnc1)C1CCCN(C2CCOCC2)C1", "note": "(configuration not stated)", "activity change, negative = inhibition": "inactive: 5.49%"},
      {"smiles": "NC(=S)N/N=C/C(Cl)=C/c1ccc([N+](=O)[O-])cc1", "Potency": "inconclusive: 11.2 µM [inhibitor, partial curve, poor fit]"},
      {"smiles": "CC(C)(C)c1nc(C(=O)NCc2ccc(F)cc2)n2ccncc12", "Potency": "active: 100 µM"},
      {"smiles": "Cc1cccc(C)c1OCCNC(=O)COc1ccc2c(C)cc(=O)oc2c1", "Potency": "inconclusive: 17.8 µM [inhibitor, partial curve, poor fit]"},
      {"smiles": "COc1ccc(Cl)cc1NC(=O)c1cc2c(s1)-c1ccccc1OC2", "Potency": "inconclusive: 3.98 µM [inhibitor, full curve, poor fit]"},
      {"smiles": "COc1ccc(NC(=O)CSc2nnc3c4c5c(sc4ncn23)CCCC5)cc1", "activity change, negative = inhibition": "inactive: 5.19%"},
      {"smiles": "Cc1ccc(C(C)CCN2CCC3(CC2)C(=O)N(Cc2ccccn2)C(=O)N3Cc2ccccc2)o1", "note": "(configuration not stated)", "Potency": "inconclusive: 31.6 µM [inhibitor, single point]"},
      {"smiles": "Cc1cccc(OCc2nn3c(CN4CCOCC4)nnc3s2)c1", "activity change, negative = inhibition": "inactive: 14.6%"},
      {"smiles": "O=C(NCc1ccc(N2CCOCC2)cc1)c1cccc2c1CCN2C(=O)C1CC1", "activity change, negative = inhibition": "inactive: 6.99%"},
      {"smiles": "Cc1cccn2c(CC(=O)N3CCC4(CC3)c3nc[nH]c3CCN4C)cnc12", "Potency": "inconclusive: 15.8 µM [inhibitor, partial curve, poor fit]"},
      {"smiles": "Cc1ccc2c(c1)N(C(=O)Cn1c(=O)n(CC(=O)N3CCCCC3)c(=O)c3sccc31)CCO2", "activity change, negative = inhibition": "inactive: -3.51%"},
      {"smiles": "CC1=C[C@@H](CN2CCN(C)CC2)[C@H](C(C)C)C[C@H]1Cc1nnc(-c2ccccc2F)o1", "activity change, negative = inhibition": "inactive: -13.3% [at 86.2 µM]"},
      {"smiles": "O=C(c1ccncc1)N1CCC(Cc2nc(-c3ccccc3)n[nH]2)CC1", "activity change, negative = inhibition": "inactive: -24.5%"},
      {"smiles": "CN1CCOC[C@H]2CCN(C(=O)c3cccc4[nH]ccc34)C[C@H]21", "Potency": "active: 25.1 µM"},
      {"smiles": "C=CCNC(=O)N[C@H]1CO[C@H]2[C@@H]1OC[C@H]2OC(=O)Nc1cccc(C(C)=O)c1", "Potency": "inconclusive: 31.6 µM [inhibitor, single point]"},
      {"smiles": "CC(C)C(=O)N1CCN(c2ccccc2NC(=O)C2(c3ccccc3)CCCC2)CC1", "activity change, negative = inhibition": "inactive: 1.35%"},
      {"smiles": "O=C(N/N=C/c1c(O)n(Cc2ccco2)c(=O)[nH]c1=O)c1ccccc1", "Potency": "inconclusive: 20 µM [inhibitor, partial curve, poor fit]"},
      {"smiles": "N#Cc1ccc(-c2ccccc2)nc1SCC(=O)Nc1cccc(Cl)c1", "Potency": "inconclusive: 2 µM [inhibitor, full curve, poor fit]"},
      {"smiles": "COc1ccc(C2C=C(c3ccccc3)Nc3nc(NS(=O)(=O)c4ccc(Cl)cc4)nn32)cc1", "note": "(configuration not stated)", "Potency": "inconclusive: 7.94 µM [inhibitor, partial curve, poor fit]"},
      {"smiles": "COc1ccc(C(=O)Cn2c(=O)c(-c3cc(C)ccc3NC(C)=O)nc3ccccc32)cc1", "activity change, negative = inhibition": "inconclusive: -36.6% [inhibitor]"},
      {"smiles": "Cc1oc(-c2ccccc2)nc1CC(=O)NC12CC3CC(CC(C3)C1)C2", "activity change, negative = inhibition": "inactive: 4.64%"},
      {"smiles": "CSc1cccc(CN2CCC(Oc3ccc(C(=O)N4CCCCC4)cc3)CC2)c1", "Potency": "inconclusive: 39.8 µM [inhibitor, single point]"},
      {"smiles": "CCOc1ccccc1NC(=O)Cn1c(=O)n(-c2cccc(C)c2)c(=O)c2c1c1cc(OC)ccc1n2C", "Potency": "inconclusive: 28.2 µM [inhibitor, partial curve, poor fit]"},
      {"smiles": "Cc1coc2c(C)c3oc(=O)c(CCC(=O)N(C)CC(=O)O)c(C)c3cc12", "Potency": "inconclusive: 25.1 µM [inhibitor, partial curve, poor fit]"},
      {"smiles": "O=C(Nc1ccc(C(=O)N2CCCCC2)cc1)Nc1cccc(Cl)c1", "activity change, negative = inhibition": "inactive: 2.76%"},
      {"smiles": "O=C(CCC1CCN(CCCn2cccn2)CC1)NC1CCN(Cc2ccccc2)C1", "note": "(configuration not stated)", "Potency": "inconclusive: 35.5 µM [inhibitor, partial curve, poor fit]"},
      {"smiles": "CC(C)[C@H](NC(=O)OCc1ccccc1)C(=O)OCc1cc(=O)oc2cc(O)ccc12", "Potency": "inconclusive: 31.6 µM [inhibitor, partial curve, poor fit]"},
      {"smiles": "COC(=O)[C@@H]1Cc2c([nH]c3ccccc23)[C@H]2C[C@@H](N3CCOCC3)C[C@@H](c3ccc(C(F)(F)F)cc3)N21", "Potency": "inconclusive: 5.62 µM [inhibitor, partial curve, poor fit]"},
      {"smiles": "COc1cc2c(=O)n(CCc3ccccc3)c(=O)n(CC(=O)Nc3ccccc3)c2cc1OC", "Potency": "inconclusive: 7.94 µM [inhibitor, partial curve, poor fit]"},
      {"smiles": "COc1ccccc1-c1[nH]nc2ncc(-c3c(C)noc3C)nc12", "Potency": "inconclusive: 35.5 µM [inhibitor, partial curve]"},
      {"smiles": "CC(=O)c1ccc(/C=C/c2nc3ccccc3n2C)o1", "Potency": "inconclusive: 22.4 µM [inhibitor, partial curve, poor fit]"},
      {"smiles": "COc1ccc(S(=O)(=O)Nc2cccc(-c3ccc(N4CCCCC4)nn3)c2)c(OC)c1", "Potency": "inconclusive: 22.4 µM [inhibitor, partial curve, poor fit]"},
      {"smiles": "CC1CCN(C(=O)c2ccc3c(c2)C(O)CCCCCN3C)CC1", "note": "(configuration not stated)", "Potency": "inconclusive: 28.2 µM [inhibitor, partial curve, poor fit]"},
      {"smiles": "CCc1ccc(-c2cc(C(=O)NCC3CCCO3)c3cc(C)ccc3n2)cc1", "note": "(configuration not stated)", "activity change, negative = inhibition": "inactive: 277%"},
      {"smiles": "CCOc1ccccc1NC(=O)NC1CCN(c2nc(C)cc(C)n2)CC1", "activity change, negative = inhibition": "inactive: -0.431%"},
      {"smiles": "COc1ccc(C(=O)N2CCC(N3CCNC3=O)CC2)cc1", "Potency": "active: 89.1 µM"},
      {"smiles": "COc1ccc(OC)c(NC(=O)c2cnn(-c3ccc(C)cc3)c2C2CCNCC2)c1", "Potency": "inconclusive: 31.6 µM [inhibitor, single point]"},
      {"smiles": "O=C(NCc1c[nH]c2ncccc12)c1ccncc1", "activity change, negative = inhibition": "inactive: 10.6% [at 86.2 µM]"},
      {"smiles": "CS(=O)(=O)NCCCNc1nc2ccccc2o1", "activity change, negative = inhibition": "inactive: 15%"},
      {"smiles": "CCc1ccccc1N(C)C(=O)c1cc2c(=O)oc3ccccc3c2s1", "Potency": "inconclusive: 2 µM [inhibitor, partial curve, poor fit]"},
      {"smiles": "CC(C)n1c(=N)c(C(=O)NCc2ccccc2)cc2c(=O)n3ccccc3nc21", "Potency": "inconclusive: 1.26 µM [inhibitor, full curve, poor fit]"},
      {"smiles": "Cc1oc2c(c1C(=O)N1CCCCCC1)CN(Cc1cccc(F)c1)CC2", "Potency": "inconclusive: 25.1 µM [inhibitor, single point]"}
    ]}
  ]
}
